Assay [1] addresses T1, transglutaminase 2 (human (endogenous in NB4)) (UniProt P21980).
T1 sequence: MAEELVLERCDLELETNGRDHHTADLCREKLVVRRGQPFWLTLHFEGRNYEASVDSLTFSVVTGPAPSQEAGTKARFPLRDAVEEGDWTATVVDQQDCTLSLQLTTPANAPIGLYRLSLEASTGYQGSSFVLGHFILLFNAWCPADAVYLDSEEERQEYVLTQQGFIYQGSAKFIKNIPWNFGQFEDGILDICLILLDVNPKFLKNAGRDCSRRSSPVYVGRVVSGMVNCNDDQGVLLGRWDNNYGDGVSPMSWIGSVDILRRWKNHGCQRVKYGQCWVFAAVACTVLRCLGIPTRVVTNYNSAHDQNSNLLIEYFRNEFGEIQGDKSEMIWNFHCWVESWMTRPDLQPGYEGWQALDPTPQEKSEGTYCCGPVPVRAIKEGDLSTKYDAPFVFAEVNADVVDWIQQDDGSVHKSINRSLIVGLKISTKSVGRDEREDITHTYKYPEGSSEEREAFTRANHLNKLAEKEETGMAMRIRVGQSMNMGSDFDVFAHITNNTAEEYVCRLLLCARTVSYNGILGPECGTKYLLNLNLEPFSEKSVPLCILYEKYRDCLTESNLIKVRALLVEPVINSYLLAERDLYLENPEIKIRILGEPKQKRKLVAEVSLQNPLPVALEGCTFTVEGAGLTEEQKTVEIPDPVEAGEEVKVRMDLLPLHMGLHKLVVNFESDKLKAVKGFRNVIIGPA
Kind of assay: condition: only cells treated with ATRA + NC9 (30 μM) for 5 days; co-IP; as a1, NB4 WT cells treated with ATRA + NC9 (30 μM, TG2 inhibitor) for 5 days.

Sequences of proteins named here, by UniProt entry; tags and fusion partners are left off. Residues count along the entry.
UniProt P05107, residues 23-769: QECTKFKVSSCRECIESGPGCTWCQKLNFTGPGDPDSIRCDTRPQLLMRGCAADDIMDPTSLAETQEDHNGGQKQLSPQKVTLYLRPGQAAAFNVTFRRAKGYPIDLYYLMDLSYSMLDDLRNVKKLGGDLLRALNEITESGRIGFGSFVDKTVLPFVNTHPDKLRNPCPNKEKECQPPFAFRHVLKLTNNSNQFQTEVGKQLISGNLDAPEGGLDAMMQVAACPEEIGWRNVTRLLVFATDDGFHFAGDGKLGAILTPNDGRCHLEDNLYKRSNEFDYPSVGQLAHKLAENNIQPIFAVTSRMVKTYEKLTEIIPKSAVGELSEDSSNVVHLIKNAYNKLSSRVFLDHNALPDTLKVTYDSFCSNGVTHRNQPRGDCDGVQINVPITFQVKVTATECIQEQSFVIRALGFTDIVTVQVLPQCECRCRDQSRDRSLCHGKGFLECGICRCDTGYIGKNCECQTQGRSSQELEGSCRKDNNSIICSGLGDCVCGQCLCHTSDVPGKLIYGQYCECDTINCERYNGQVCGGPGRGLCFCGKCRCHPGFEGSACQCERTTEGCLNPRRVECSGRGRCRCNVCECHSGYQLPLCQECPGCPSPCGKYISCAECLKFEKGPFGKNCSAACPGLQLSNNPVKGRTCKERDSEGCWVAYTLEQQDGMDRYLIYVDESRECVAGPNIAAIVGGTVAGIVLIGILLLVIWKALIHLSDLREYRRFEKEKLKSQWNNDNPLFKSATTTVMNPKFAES

Assay [2] addresses T1, transglutaminase 2 (human (endogenous in NB4)). Kind of assay: co-IP; immunoprecipitation from the plasma membrane fraction (and total cell lysate) of ATRA-treated NB4 WT cells with a polyclonal TG2 antibody and, reciprocally, with antibodies to mTOR, AKT, CD18, p85, PI3K/p110, PTEN and c-SRC; Western blot. In general terms: A western blot detects proteins with antibodies after separation by electrophoresis.

The target is the same in assay [3]. Kind of assay: condition: only cells treated with ATRA + PP2 (20 μM) for 5 days; co-IP; as a1, NB4 WT cells treated with ATRA + PP2 (20 μM, c-SRC inhibitor) for 5 days.
For assay [4] the target is unchanged. Kind of assay: far-Western, overlay or dot blot; modified far-western blot with disuccinimidyl suberate (DSS): bait proteins immunoprecipitated from plasma membrane, renatured and incubated with plasma membrane lysates; bound prey detected by a primary antibody; NB4 WT cells with ATRA for 5 days, also for 2 days, and NB4 WT CD18-/- cells; only the target purified.

Results are given in words; binding and its absence hold for the method and conditions named. For some of these results: In cells and extracts the contact can be indirect. Some results given as binding are weak or reduced against the parent protein; the word gives no strength.

In the case of “CD18 β2-integrin subunit (from UniProt P05107 23-769) (receptor)”, the binding result in assay [1] is “no binding”; in assay [2], “binds”; in assay [3], “no binding”; in assay [4], “binds”.

The record behind these values is article PMC10050012.
